Assay results reported in article PMC4336329 (PLoS ONE, 2015).
The whole screen tested about 310,000 compounds, of which about 14,000 (4.5%) showed an effect of 50% or more. The effect is printed as a negative number. The list shows a part of the results.

molecular target: human ether-à-go-go-related gene (hERG) potassium channel (human, UniProt Q12809); assay: primary screen, population patch clamp on CHO cells stably expressing hERG
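Also: peak tail current of the secondary pulse compared with the same well before compound.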

human ether-à-go-go-related gene (hERG) potassium channel, sequence (Q12809 whole entry, looked up): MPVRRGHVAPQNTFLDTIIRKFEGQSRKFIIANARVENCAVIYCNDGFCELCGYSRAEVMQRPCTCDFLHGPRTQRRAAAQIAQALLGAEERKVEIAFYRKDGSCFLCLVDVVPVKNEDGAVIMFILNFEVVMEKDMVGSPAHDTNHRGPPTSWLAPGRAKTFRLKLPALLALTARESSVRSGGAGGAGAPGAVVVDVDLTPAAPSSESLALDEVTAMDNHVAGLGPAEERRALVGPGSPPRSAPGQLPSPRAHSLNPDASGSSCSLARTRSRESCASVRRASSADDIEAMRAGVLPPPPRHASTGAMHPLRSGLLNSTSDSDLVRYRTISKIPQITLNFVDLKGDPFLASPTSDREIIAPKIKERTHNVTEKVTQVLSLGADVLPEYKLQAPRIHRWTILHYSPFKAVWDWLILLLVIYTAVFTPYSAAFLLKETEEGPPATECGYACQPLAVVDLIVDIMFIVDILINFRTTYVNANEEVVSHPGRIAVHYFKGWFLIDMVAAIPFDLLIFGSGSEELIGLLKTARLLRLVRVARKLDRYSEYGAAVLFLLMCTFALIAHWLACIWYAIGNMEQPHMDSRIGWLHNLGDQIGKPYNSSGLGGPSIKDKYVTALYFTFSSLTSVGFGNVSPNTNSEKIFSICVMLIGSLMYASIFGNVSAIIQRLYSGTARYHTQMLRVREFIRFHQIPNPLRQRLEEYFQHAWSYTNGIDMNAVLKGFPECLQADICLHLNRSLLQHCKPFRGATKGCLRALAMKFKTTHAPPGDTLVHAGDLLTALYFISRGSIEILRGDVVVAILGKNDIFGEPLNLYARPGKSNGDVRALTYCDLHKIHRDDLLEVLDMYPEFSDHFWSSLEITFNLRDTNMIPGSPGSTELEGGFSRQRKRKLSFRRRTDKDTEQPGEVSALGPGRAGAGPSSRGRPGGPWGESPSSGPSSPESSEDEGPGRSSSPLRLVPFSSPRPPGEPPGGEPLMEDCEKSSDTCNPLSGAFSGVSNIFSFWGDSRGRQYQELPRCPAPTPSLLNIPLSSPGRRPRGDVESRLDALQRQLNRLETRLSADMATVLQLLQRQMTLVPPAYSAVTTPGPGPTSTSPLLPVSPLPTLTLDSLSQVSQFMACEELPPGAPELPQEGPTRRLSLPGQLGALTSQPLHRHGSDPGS

Row | SMILES | hERG current change (%, negative = inhibition) at 10uM
1 | Cc1c(C(=O)Nc2cc(S(=O)(=O)N3CCOCC3)ccc2N2CCOCC2)oc2ccccc12 | 10.4%
2 | O=C(Nc1nc2ccccc2[nH]1)C1CCC1 | 14.6%
3 | COc1ccc(-n2nc3c(N)n[nH]c3cc2=O)cc1 | -2.4%
4 | NC(=O)CC(NC(=O)c1ccccc1)c1ccc(N2CCN(c3ccccc3)CC2)c([N+](=O)[O-])c1 (stereo not shown) | 1.33%
5 | CC(=O)Nc1ccc(S(=O)(=O)Nc2nc3ccccc3s2)cc1 | 4.98%
6 | COc1cccc(CN(C)C(=O)CC2C(=O)NCCN2C2Cc3ccccc3C2)c1 (stereo not shown) | -11.1%
7 | O=C1[C@@H]2C(Cc3ccc(O)cc3)NC3(C(=O)Nc4ccc(F)cc43)[C@@H]2C(=O)N1c1ccccc1 (stereo partly shown) | 1.61%
8 | O=C(NCc1ccccc1)c1ccc(CNc2c(N3CCCC3)c(=O)c2=O)cc1 | 0.027%
9 | O=C(Cn1nc(C(F)(F)F)c2c1CCCCC2)N1CCOCC1 | 14.6%
10 | CC(=O)c1cccc(NC(=O)C(OC(=O)c2cccc(S(=O)(=O)N(C)c3ccccc3)c2)c2ccccc2)c1 (stereo not shown) | 12.4%
11 | Cn1c(O)c(N=NC(=O)CNC(=O)c2ccccc2)c2cc(Br)ccc21 | -18.8%
12 | Cn1c(/C(C#N)=C(\O)c2ccccc2Cl)nc2ccccc21 | 16.4%
13 | COc1ccc(-c2nc(SCC(=O)Nc3cc(C)on3)n[nH]2)cc1 | 6.83%
14 | CCN1C(=O)/C(=C\N(C)C)c2ccccc21 | 18.5%
15 | CN(Cc1nc2ccccc2c(=O)[nH]1)C(=O)c1ccccc1OCc1ccc(Cl)cc1 | -58.2%
16 | CCCNCC1COc2ccccc2O1.Cl (stereo not shown) | 23.1%
17 | C[C@@]12CCC3[C@@](CCC4[C@@]3(C)CCC[C@@]4(C)C(=O)NC3CCCCC3)(CC1=O)C2 (stereo partly shown) | -4.1%
18 | O=S(=O)(Cc1c(F)cccc1Cl)c1ncn[nH]1 | 23.1%
19 | COc1ccc(NCc2ccc3c(c2)OCO3)cc1Cl | -4.31%
20 | CCN(CC)c1ccc2cc(C(N)=O)c(=O)oc2c1 | 9.31%
21 | Cc1cc(C)c(C(=O)N2CCCC(N3CCN(c4ccc(F)cc4)CC3)C2)o1 (stereo not shown) | -73.6%
22 | CN(CC(=O)N1CCN(c2ccccc2)CC1)S(=O)(=O)c1cccs1 | -24.8%
23 | c1ccc(NC2=NCCS2)cc1 | 14.2%

Row | SMILES | hERG current change (%, negative = inhibition) at 10uM
24 | CCCN=C(Nc1ccc(Cl)cc1)c1cccnc1 | -11.5%
25 | O=C(NC1CCCCC1)C(c1cccs1)N(CCCN1CCOCC1)C(=O)c1ccc(-c2ccccc2)[nH]1 (stereo not shown) | -66.5%
26 | Nc1ccc(Sc2nnnn2-c2ccccc2)c(Cl)c1 | 0.677%
27 | COc1ccc(/C=N/NC(=O)c2cccc(NC(C)=O)c2)c(C(=O)O)c1OC | 10.2%
28 | COc1nc(N2CCCC2)nc(-n2nnc(C(C)=O)c2C)n1 | 0.253%
29 | c1cc2cn[nH]c2cc1NC1CCCCCC1 | -11.6%
30 | COc1ccc(C(CNC(=O)CCNC(=O)c2ccc(Br)cc2)N2CCOCC2)cc1 (stereo not shown) | -21.6%
31 | COC(=O)[C@H](CCSC)NS(=O)(=O)c1ccccc1Br | 13.8%
32 | COc1ccc2cc3c(nc2c1)OCC3 | 14.3%
33 | CCN1CCN(Cc2ccc(NC(=O)c3cc(NC(=O)c4ccno4)cc(OC)c3)cc2C(F)(F)F)CC1 | 5.43%
34 | COc1cc(CN(C)C)cc(C=O)c1O | 19.4%
35 | CCOc1ncccc1C(=O)N1CCN(Cc2ccc3c(c2)OCO3)CC1 | -11.7%
36 | O=C(c1ccc(-n2ccnc2)cc1)N1CCCC(CO)(Cc2cccc(Cl)c2)C1 (stereo not shown) | -60.4%
37 | CCn1cc(/C=N\NC(=O)c2csc3ccccc23)c(C)n1 | 13.2%
38 | COc1ccccc1NS(=O)(=O)c1ccc2oc(SCc3ccc(F)cc3)nc2c1 | -14.9%
39 | Cc1ccc(C)c(N(CC(=O)NCC2CCCO2)C(=O)CCC(=O)Nc2nccs2)c1 (stereo not shown) | -0.0198%
40 | COC(=O)Cn1c(=O)sc2ccccc21 | -6.65%
41 | CCOc1ccc(CCNC(=O)c2cc(C)nn2-c2ccccc2)cc1 | -7.87%
42 | O=C(OCC(=O)c1ccc(S(=O)(=O)N2CCCC2)cc1)C1=COCCO1 | 7.22%
43 | CCn1c(=S)[nH]c2ccccc21 | 10.9%
44 | CS(=O)(=O)N(CC(=O)Nc1ccccc1C(=O)NCc1ccccc1)c1ccc2c(c1)OCCO2 | -30.3%
45 | Cc1ccc(C(=O)N/C(=C/c2ccc(Cl)cc2)C(=O)N2CCOCC2)cc1 | -32.6%
46 | CC(=O)c1cc(C(=O)c2ccccc2)sc1Nc1ccccc1 | 7.18%

Row | SMILES | hERG current change (%, negative = inhibition) at 10uM
47 | CC(Oc1ccccc1)C(=O)Nc1ccc(S(=O)(=O)Nc2nccs2)cc1 (stereo not shown) | 16.9%
48 | C=CCn1c(Br)nc2c1c(=O)n(C)c(=O)n2C | -30.6%
49 | COc1ccc(C(NC(=O)CN2C(=O)NC3(CCc4ccccc43)C2=O)c2ccccc2)cc1 (stereo not shown) | -12.9%
50 | C=CCN1C(=O)CSC1=Nc1ccc(O)cc1 | 5.79%
51 | CCc1cc(OCCOCCN(C)C)ccc1Cl.O=C(O)C(=O)O | -28.3%
52 | CCOc1ncccc1C(=O)OCC(=O)c1ccc(OC)c(OC)c1 | 3.64%
53 | O=C1/C(=C/c2ccc([N+](=O)[O-])cc2)C=C(c2ccccc2)N1c1ccc(O)cc1 | 11.2%
54 | COc1ccc(-c2nc(CS(=O)CC(=O)NCc3ccco3)c(C)o2)cc1OC (stereo not shown) | -13.9%
55 | Cc1c(C)c(C)c(S(=O)(=O)N2CCSCC2)c(C)c1C | 10.8%
56 | Cc1cn2c(=O)c(C(=O)N3CCN(c4ccccc4Cl)CC3)cnc2s1 | -62.8%
57 | CC(C)CC12CN3CCN(CC(C3)C1O)C2 (stereo not shown) | -1.15%
58 | COc1ccc(NC(=O)COC(=O)c2ccc(N3CCCC3=O)cc2)cc1 | 20.1%
59 | Cc1cccc(NC(=O)c2ccc(C(=O)c3ccccc3)cc2)n1 | -18.2%
60 | Cc1ccc(NC(=O)CC(C(=O)O)c2ccccc2)cc1 (stereo not shown) | 8.15%
61 | CN(C)c1oc(-c2ccccc2[N+](=O)[O-])nc1C#N | 22%
62 | O=c1c2ccccc2ncn1-c1ccc(Br)cc1[N+](=O)[O-] | -61.4%
63 | CN(CC(=O)Nc1ccc(Br)cc1)Cc1ccccc1 | 0.267%
64 | CC1CCC(NC(=O)c2ccc3c(c2)S(=O)(=O)c2ccccc2C3=O)CC1 (stereo not shown) | -17.4%
65 | CC(C)C(=O)NC(=S)Nc1ccc(S(=O)(=O)NC2CCCCC2)cc1 | 5.83%
66 | CCn1c(N)c(C(=O)NC2CCCCC2)sc1=S | -5.55%
67 | O=C(Nc1ccccc1)c1sc(N2CCOCC2)nc1-c1ccccc1 | 1.24%
68 | CN(c1ccccc1)S(=O)(=O)c1ccc(NC(=S)NC(=O)c2ccccc2)cc1 | -1.27%
69 | Cc1nn(-c2ccc(F)cc2)c(C)c1CN1CCN(Cc2ccccc2)C(CCO)C1 (stereo not shown) | -44.2%

Row | SMILES | hERG current change (%, negative = inhibition) at 10uM
70 | NCCNc1cc(N2CCCC2)ccc1[N+](=O)[O-] | 4.66%
71 | CNC(=O)c1cc(C(=O)c2ccc(F)cc2Cl)c[nH]1 | 14.5%
72 | Cc1nc2ccccn2c1-c1ccnc(SCc2ccc(Cl)cc2)n1 | 15.8%
73 | C(=N\N1CCOCC1)/c1ccsc1.O=P(O)(O)O | 18.8%
74 | C(=N\c1nccs1)/c1c[nH]c2ccccc12 | 13.4%
75 | Cc1nn(-c2ccccc2)c(CC(C)(C)C(=O)O)c1C(=O)O | 0.758%
76 | Brc1ccc2nc(-c3cccs3)c(NCC3CCCO3)n2c1 (stereo not shown) | -52.6%
77 | O=C(Cc1ccc(Br)cc1)NC1CCSC1=O (stereo not shown) | 31.5%
78 | CCC(=O)N1CCCc2cc(S(=O)(=O)N3CCC(N4CCCCC4)CC3)ccc21 | 5.89%
79 | COc1ccc(/C=C/C2=CCN(Cc3ccc(OC)cc3)CC2)cc1.Cl | -72.3%
80 | CCN(Cc1ccccc1)C(=O)CSc1n[nH]c(N)n1 | 33.6%
81 | CCN(CC)S(=O)(=O)c1ccc(-c2cc(C(=O)OC)sc2C(F)(F)F)cc1 | 12.1%
82 | CSCc1ccc(C(=O)NCCSc2ccc(Br)cc2)cc1 | 13.8%
83 | Cc1ccc(N/N=C/c2c(O)cc(C)oc2=O)cc1 | 9.54%
84 | CCN(CC)CCCN1C(=O)CSC1c1ccc2c(c1)OCO2.Cl (stereo not shown) | -39.2%
85 | CCOc1ccc(N=Nc2c(=O)[nH]n3c(=O)c4c([nH]c23)CCCC4)cc1 | 13.5%
86 | CCOC(=O)C1CCN(Cc2ccc(OC)cc2OC)CC1 | -45.2%
87 | O=C(COC(=O)c1cccc(S(=O)(=O)N2CCc3ccccc32)c1)Nc1ncc(C(F)(F)F)cc1Cl | 9.53%
88 | CCN(CC)C(=O)OCCc1cc2ccccc2c(=O)o1 | 15.3%
89 | CC(=O)Cc1nsc(Nc2ccc(Cl)cc2)n1 | 3.14%
90 | C/C(=N\NC(=O)CSCc1ccccc1Cl)c1cccc(NC(=O)c2ccccc2)c1 | 12.5%
91 | CCn1cnc2c1c(=O)n(CC(=O)OC(C)C(N)=O)c(=O)n2Cc1ccccc1 (stereo not shown) | 22.6%
